Measured values taken from the supplement of paper PMC8728848.
The other results are listed elsewhere or left out.

How the values were obtained:
Experiment in all cases: glycan array binding signal (z-score within array); higher = stronger binding
Details in all cases: glycan notation: IUPAC condensed, linker removed
[1] = molecular target: Fuc(a1-2)Gal
In short: (§1)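 Glycan array data were curated from 3228 arrays in the Consortium for Functional Glycomics database and kept only where the protein sequence was available. Glycan names were converted to IUPAC-condensed notation, and columns mapping to the same glycan were averaged. The binding signal is a within-array Z-score, averaged across arrays of the same protein sequence at different concentrations or buffers and across linkers. Negative Z-scores can be read as non-binding.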

[2] = molecular target: Fuc(a1-2)Gal(b1-3)GalNAc
In short: as §1

[3] = molecular target: Fuc(a1-2)Gal(b1-3)GalNAc(b1-3)Gal
In short: as §1

[4] = molecular target: Fuc(a1-2)Gal(b1-3)GalNAc(b1-3)Gal(a1-4)Gal(b1-4)Glc
In short: as §1

[5] = molecular target: Fuc(a1-2)Gal(b1-3)GalNAc(b1-3)Gal(b1-4)Glc
In short: as §1

[6] = molecular target: Fuc(a1-2)Gal(b1-3)GalNAc(b1-4)[Neu5Ac(a2-3)]Gal(b1-4)Glc
In short: as §1

[7] = molecular target: Fuc(a1-2)Gal(b1-3)[Fuc(a1-4)]GlcNAc
In short: as §1

[8] = molecular target: Fuc(a1-2)Gal(b1-4)Glc
In short: as §1

[9] = molecular target: Fuc(a1-2)Gal(b1-4)Glc6S
In short: as §1

[10] = molecular target: Fuc(a1-2)Gal(b1-4)GlcNAc
In short: as §1

[11] = molecular target: Fuc(a1-2)Gal(b1-4)GlcNAc(b1-3)Gal(b1-4)GlcNAc
In short: as §1

[12] = molecular target: Fuc(a1-2)Gal(b1-4)GlcNAc(b1-3)Gal(b1-4)GlcNAc(b1-3)Gal(b1-4)GlcNAc
In short: as §1

[13] = molecular target: Fuc(a1-2)Gal(b1-4)GlcNAc6S
In short: as §1

[14] = molecular target: Fuc(a1-2)Gal(b1-4)[Fuc(a1-3)]GalNAc(b1-3)Gal(b1-4)[Fuc(a1-3)]GlcNAc
In short: as §1

[15] = molecular target: Fuc(a1-2)Gal(b1-4)[Fuc(a1-3)]GalNAc(b1-3)Gal(b1-4)[Fuc(a1-3)]GlcNAc(b1-3)Gal(b1-4)[Fuc(a1-3)]GalNAc
In short: as §1

[16] = molecular target: Fuc(a1-2)Gal(b1-4)[Fuc(a1-3)]GlcNAc
In short: as §1

[17] = molecular target: Fuc(a1-2)Gal6S(b1-4)Glc
In short: as §1

[18] = molecular target: Fuc(a1-2)Gal6S(b1-4)Glc6S
In short: as §1

[19] = molecular target: Fuc(a1-2)Gal6S(b1-4)GlcNAc
In short: as §1

[20] = molecular target: Fuc(a1-2)GlcNAc
In short: as §1

[21] = molecular target: Fuc(a1-2)[Gal(a1-3)]Gal
In short: as §1

[22] = molecular target: Fuc(a1-2)[Gal(a1-3)]Gal(b1-3)GlcNAc
In short: as §1

[23] = molecular target: Fuc(a1-2)[Gal(a1-3)]Gal(b1-4)Glc
In short: as §1

[24] = molecular target: Fuc(a1-2)[Gal(a1-3)]Gal(b1-4)GlcNAc
In short: as §1

[25] = molecular target: Fuc(a1-2)[Gal(a1-3)]Gal(b1-4)[Fuc(a1-3)]GlcNAc
In short: as §1

[26] = molecular target: Fuc(a1-2)[Gal(a1-4)]Gal(b1-4)GalNAc
In short: as §1

[27] = molecular target: Fuc(a1-2)[GalNAc(a1-3)]Gal
In short: as §1

[28] = molecular target: Fuc(a1-2)[GalNAc(a1-3)]Gal(b1-3)GlcNAc
In short: as §1

[29] = molecular target: Fuc(a1-2)[GalNAc(a1-3)]Gal(b1-4)Glc
In short: as §1

[30] = molecular target: Fuc(a1-2)[GalNAc(a1-3)]Gal(b1-4)GlcNAc
In short: as §1

[31] = molecular target: Fuc(a1-2)[GalNAc(a1-3)]Gal(b1-4)[Fuc(a1-3)]GlcNAc
In short: as §1

[32] = molecular target: Fuc(a1-2)[GalNAc(a1-4)]Gal(b1-4)GlcNAc
In short: as §1

[33] = molecular target: Fuc(a1-3)GlcNAc
In short: as §1

[34] = molecular target: Fuc(a1-3)[Gal(b1-4)]Glc6S
In short: as §1

[35] = molecular target: Fuc(a1-3)[Gal(b1-4)]GlcNAc
In short: as §1

[36] = molecular target: Fuc(a1-3)[Gal(b1-4)]GlcNAc(b1-3)Gal(b1-3)[Fuc(a1-4)]GlcNAc
In short: as §1

[37] = molecular target: Fuc(a1-3)[Gal(b1-4)]GlcNAc(b1-4)Gal(b1-4)[Fuc(a1-3)]GlcNAc
In short: as §1

[38] = molecular target: Fuc(a1-3)[Gal(b1-4)]GlcNAc(b1-4)Gal(b1-4)[Fuc(a1-3)]GlcNAc(b1-4)Gal(b1-4)[Fuc(a1-3)]GlcNAc
In short: as §1

[39] = molecular target: Fuc(a1-3)[Gal(b1-4)]GlcNAc6S
In short: as §1

[40] = molecular target: Fuc(a1-3)[Gal3S(b1-4)]Glc
In short: as §1

[41] = molecular target: Fuc(a1-3)[Gal3S(b1-4)]Glc6S
In short: as §1

[42] = molecular target: Fuc(a1-3)[Gal3S(b1-4)]GlcNAc
In short: as §1

[43] = molecular target: Fuc(a1-3)[Gal3S(b1-4)]GlcNAc6S
In short: as §1

[44] = molecular target: Fuc(a1-3)[GalNAc(b1-4)]Gal(b1-4)GlcNAc
In short: as §1

[45] = molecular target: Fuc(a1-4)GlcNAc
In short: as §1

[46] = molecular target: Fuc(b1-3)GlcNAc
In short: as §1

[47] = molecular target: Gal(a1-2)Gal
In short: as §1

[48] = molecular target: Gal(a1-3)Gal
In short: as §1

[49] = molecular target: Gal(a1-3)Gal(b1-3)Glc
In short: as §1

[50] = molecular target: Gal(a1-3)Gal(b1-3)GlcNAc
In short: as §1

[51] = molecular target: Gal(a1-3)Gal(b1-4)GlcNAc
In short: as §1

[52] = molecular target: Gal(a1-3)Gal(b1-4)[Fuc(a1-3)]GalNAc
In short: as §1

[53] = molecular target: Gal(a1-3)GlcNAc
In short: as §1

[54] = molecular target: Gal(a1-3)[Gal(a1-4)]Gal(b1-4)GlcNAc
In short: as §1

[55] = molecular target: Gal(a1-4)Gal(b1-4)Gal
In short: as §1

[56] = molecular target: Gal(a1-4)Gal(b1-4)GalNAc
In short: as §1

[57] = molecular target: Gal(a1-4)GlcNAc
In short: as §1

[58] = molecular target: Gal(a1-6)Glc
In short: as §1

[59] = molecular target: Gal(b1-2)Gal
In short: as §1

[60] = molecular target: Gal(b1-3)Gal
In short: as §1

B1: STA (Solanum tuberosum), Q9S8M0 (protein)
chain: NASPPSPSPLPYPQCGMKKGGGKCIKTGECCSIWGWCGTTNAYCSPGYCQKQCPGPYPEGRCGWQANGKSCPTGTGQCCSNGGWCGTTSDYCASKNCQSQCKLPSPPPPPPPPSPPPPSPPSPPPPSPPPPPPPSPPPPSPPPPSPSPPPPPASPPPPPPALPYPQCGIKKGGGKCIKTGECCSIWGWCGTTNAYCSPGYCQKQCPGPYPEGRCGWQANGKSCPTGTGHCCSNAGWCGTTSDYCAPVNCQAQCNTTTLTSPIKNRMRGIESFMLNVV
- glycan array binding signal (z-score) [1]: -0.587
- glycan array binding signal (z-score) [2]: -0.582
- glycan array binding signal (z-score) [3]: -0.572
- glycan array binding signal (z-score) [4]: -0.58
- glycan array binding signal (z-score) [5]: -0.595
- glycan array binding signal (z-score) [6]: -0.584
- glycan array binding signal (z-score) [7]: -0.603
- glycan array binding signal (z-score) [8]: -0.595
- glycan array binding signal (z-score) [9]: -0.576
- glycan array binding signal (z-score) [10]: 2.12
- glycan array binding signal (z-score) [11]: 2.12
- glycan array binding signal (z-score) [12]: 1.72
- glycan array binding signal (z-score) [13]: 1.6
- glycan array binding signal (z-score) [14]: -0.593
- glycan array binding signal (z-score) [15]: -0.583
- glycan array binding signal (z-score) [16]: -0.573
- glycan array binding signal (z-score) [17]: -0.584
- glycan array binding signal (z-score) [18]: -0.53
- glycan array binding signal (z-score) [19]: -0.558
- glycan array binding signal (z-score) [20]: -0.595
- glycan array binding signal (z-score) [21]: -0.597
- glycan array binding signal (z-score) [22]: -0.588
- glycan array binding signal (z-score) [23]: -0.597
- glycan array binding signal (z-score) [24]: 1.58
- glycan array binding signal (z-score) [25]: -0.593
- glycan array binding signal (z-score) [26]: 1.82
- glycan array binding signal (z-score) [27]: -0.588
- glycan array binding signal (z-score) [28]: -0.59
- glycan array binding signal (z-score) [29]: -0.586
- glycan array binding signal (z-score) [30]: 1.81
- glycan array binding signal (z-score) [31]: -0.574
- glycan array binding signal (z-score) [32]: 1.89
- glycan array binding signal (z-score) [33]: -0.568
- glycan array binding signal (z-score) [34]: -0.562
- glycan array binding signal (z-score) [35]: -0.587
- glycan array binding signal (z-score) [36]: -0.582
- glycan array binding signal (z-score) [37]: -0.582
- glycan array binding signal (z-score) [38]: -0.59
- glycan array binding signal (z-score) [39]: 1.88
- glycan array binding signal (z-score) [40]: -0.568
- glycan array binding signal (z-score) [41]: -0.54
- glycan array binding signal (z-score) [42]: -0.544
- glycan array binding signal (z-score) [43]: 1.67
- glycan array binding signal (z-score) [44]: -0.59
- glycan array binding signal (z-score) [45]: -0.583
- glycan array binding signal (z-score) [46]: -0.593
- glycan array binding signal (z-score) [47]: -0.577
- glycan array binding signal (z-score) [48]: -0.569
- glycan array binding signal (z-score) [49]: -0.582
- glycan array binding signal (z-score) [50]: -0.585
- glycan array binding signal (z-score) [51]: 1.54
- glycan array binding signal (z-score) [52]: -0.597
- glycan array binding signal (z-score) [53]: -0.586
- glycan array binding signal (z-score) [54]: 1.61
- glycan array binding signal (z-score) [55]: -0.59
- glycan array binding signal (z-score) [56]: 1.59
- glycan array binding signal (z-score) [57]: 1.2
- glycan array binding signal (z-score) [58]: -0.585
- glycan array binding signal (z-score) [59]: -0.575
- glycan array binding signal (z-score) [60]: -0.58
